These are yes or no findings as the source states them, for the method shown. Binding seen in cells or lysates may run through a third protein. Some results given as binding are weak or reduced against the parent protein; the word gives no strength. Sequences can lack the tags named with a protein.

Protein sequences, listed by entry. Tags and fused reporters are not part of them.
UniProt P53618: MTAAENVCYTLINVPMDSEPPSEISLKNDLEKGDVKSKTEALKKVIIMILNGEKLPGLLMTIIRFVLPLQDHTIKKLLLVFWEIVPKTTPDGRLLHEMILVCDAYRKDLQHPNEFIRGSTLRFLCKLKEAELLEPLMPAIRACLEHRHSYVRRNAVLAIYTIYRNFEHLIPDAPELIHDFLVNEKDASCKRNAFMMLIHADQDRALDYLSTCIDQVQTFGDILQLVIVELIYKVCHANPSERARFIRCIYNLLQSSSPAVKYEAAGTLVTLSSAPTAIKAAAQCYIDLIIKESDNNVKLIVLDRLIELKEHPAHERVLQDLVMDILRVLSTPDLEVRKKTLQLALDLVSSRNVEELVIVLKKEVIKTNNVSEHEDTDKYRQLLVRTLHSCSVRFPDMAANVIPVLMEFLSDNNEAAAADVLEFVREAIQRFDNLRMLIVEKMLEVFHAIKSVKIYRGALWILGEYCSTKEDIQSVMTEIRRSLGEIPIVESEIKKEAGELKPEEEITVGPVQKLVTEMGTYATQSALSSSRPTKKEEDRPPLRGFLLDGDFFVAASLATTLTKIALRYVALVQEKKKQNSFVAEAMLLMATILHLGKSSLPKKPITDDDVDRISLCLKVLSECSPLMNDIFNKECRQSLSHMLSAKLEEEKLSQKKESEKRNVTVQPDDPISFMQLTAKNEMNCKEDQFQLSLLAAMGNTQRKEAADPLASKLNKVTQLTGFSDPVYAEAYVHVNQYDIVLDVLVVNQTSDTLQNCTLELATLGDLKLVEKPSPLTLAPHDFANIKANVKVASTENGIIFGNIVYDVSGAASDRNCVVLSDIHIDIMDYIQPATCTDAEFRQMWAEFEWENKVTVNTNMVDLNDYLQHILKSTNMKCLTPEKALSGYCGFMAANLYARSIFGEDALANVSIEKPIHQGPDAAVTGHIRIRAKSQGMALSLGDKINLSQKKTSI
UniProt P51812: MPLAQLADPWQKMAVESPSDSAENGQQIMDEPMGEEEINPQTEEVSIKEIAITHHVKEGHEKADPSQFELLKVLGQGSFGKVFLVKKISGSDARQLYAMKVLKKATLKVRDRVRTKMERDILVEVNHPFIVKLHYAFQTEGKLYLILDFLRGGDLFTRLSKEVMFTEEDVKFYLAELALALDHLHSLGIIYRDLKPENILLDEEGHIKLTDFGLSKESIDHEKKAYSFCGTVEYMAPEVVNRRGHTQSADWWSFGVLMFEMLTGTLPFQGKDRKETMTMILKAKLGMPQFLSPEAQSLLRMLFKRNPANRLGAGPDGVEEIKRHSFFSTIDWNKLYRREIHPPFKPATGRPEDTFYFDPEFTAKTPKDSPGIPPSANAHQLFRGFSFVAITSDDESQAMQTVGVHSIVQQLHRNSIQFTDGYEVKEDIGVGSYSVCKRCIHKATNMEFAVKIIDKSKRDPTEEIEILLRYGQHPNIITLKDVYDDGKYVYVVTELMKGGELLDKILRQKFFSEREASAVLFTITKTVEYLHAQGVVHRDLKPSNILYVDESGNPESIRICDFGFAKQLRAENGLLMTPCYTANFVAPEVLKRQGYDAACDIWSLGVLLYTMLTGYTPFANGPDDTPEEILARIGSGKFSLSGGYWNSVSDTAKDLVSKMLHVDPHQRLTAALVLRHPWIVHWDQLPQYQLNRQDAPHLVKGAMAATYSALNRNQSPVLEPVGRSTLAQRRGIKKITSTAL
UniProt P62258: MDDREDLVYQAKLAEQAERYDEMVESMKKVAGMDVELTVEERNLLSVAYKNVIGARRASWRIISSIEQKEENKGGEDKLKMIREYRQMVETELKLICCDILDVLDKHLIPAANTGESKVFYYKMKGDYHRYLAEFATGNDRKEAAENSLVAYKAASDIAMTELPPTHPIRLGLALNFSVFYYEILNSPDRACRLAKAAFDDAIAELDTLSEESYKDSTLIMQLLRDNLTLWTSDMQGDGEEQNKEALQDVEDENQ

What all share (test): co-IP; anti-HA magnetic beads, 4 °C, at least 2 h; Triton X-100 lysis buffer (1% Triton X-100, 150 mM NaCl, 50 mM Tris-HCl pH 7.5); iRhom1/2 DKO HEK293T cells transfected with HA-iRhom2 variants, with GFP-KRAS G12V or GFP (Fig. 1C), alone (Fig. 6C) or with V5-FRMD8 (Fig. 6F); Western blot
A general note: In western blotting, separated proteins are transferred to a membrane and probed.

The target of experiment [1] is T1, iRhom2 PRRKRM/As mutant (HA-tagged) (human) (UniProt Q6PJF5).
T1 sequence: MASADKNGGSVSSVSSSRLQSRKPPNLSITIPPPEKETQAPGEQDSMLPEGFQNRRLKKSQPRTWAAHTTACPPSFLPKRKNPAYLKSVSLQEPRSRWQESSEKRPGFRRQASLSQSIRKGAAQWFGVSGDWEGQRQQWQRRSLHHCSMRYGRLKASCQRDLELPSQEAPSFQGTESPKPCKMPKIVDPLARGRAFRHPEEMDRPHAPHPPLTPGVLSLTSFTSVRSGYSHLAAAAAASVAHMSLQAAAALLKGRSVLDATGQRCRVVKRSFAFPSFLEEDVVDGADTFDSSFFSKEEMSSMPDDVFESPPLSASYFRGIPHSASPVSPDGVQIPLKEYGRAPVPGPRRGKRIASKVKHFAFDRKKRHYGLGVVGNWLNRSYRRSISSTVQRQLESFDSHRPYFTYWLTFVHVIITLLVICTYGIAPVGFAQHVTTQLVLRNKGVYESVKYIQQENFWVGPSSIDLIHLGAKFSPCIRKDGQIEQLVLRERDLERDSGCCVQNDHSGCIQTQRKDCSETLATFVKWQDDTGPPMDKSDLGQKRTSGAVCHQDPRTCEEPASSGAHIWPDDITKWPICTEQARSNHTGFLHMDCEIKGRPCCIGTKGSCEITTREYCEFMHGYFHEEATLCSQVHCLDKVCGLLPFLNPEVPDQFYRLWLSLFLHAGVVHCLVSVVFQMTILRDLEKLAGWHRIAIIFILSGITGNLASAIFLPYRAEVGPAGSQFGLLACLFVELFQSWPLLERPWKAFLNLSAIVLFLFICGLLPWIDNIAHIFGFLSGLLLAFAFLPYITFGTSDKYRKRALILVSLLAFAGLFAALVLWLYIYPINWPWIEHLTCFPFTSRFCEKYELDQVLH

In experiment [2] the target is T2, iRhom2 RKR-only mutant (HA-tagged) (human) (UniProt Q6PJF5).
T2 sequence: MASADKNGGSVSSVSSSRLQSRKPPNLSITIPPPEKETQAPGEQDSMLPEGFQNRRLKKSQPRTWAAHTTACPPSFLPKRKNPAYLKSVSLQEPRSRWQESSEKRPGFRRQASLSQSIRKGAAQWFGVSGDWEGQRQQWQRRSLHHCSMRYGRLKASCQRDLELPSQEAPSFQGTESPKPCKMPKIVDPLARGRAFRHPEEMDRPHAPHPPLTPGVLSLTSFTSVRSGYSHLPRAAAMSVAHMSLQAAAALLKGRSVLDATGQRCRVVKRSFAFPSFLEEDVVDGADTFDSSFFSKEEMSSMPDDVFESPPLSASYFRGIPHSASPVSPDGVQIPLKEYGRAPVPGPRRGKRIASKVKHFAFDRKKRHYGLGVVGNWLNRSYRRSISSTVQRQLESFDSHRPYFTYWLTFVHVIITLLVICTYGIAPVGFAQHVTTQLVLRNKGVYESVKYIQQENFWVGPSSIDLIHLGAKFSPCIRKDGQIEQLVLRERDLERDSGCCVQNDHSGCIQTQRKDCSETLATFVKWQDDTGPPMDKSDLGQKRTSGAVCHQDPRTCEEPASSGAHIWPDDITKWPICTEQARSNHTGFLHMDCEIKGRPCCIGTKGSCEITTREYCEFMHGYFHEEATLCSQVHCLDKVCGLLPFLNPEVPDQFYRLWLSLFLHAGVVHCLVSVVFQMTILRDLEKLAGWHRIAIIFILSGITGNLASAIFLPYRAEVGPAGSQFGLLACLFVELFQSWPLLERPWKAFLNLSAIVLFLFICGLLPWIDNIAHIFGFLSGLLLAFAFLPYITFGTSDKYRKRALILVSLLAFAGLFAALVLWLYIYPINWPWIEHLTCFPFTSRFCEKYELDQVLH

Experiment [3] deals with T3, iRhom2 wild type (HA-tagged) (human) (UniProt Q6PJF5).
T3 sequence: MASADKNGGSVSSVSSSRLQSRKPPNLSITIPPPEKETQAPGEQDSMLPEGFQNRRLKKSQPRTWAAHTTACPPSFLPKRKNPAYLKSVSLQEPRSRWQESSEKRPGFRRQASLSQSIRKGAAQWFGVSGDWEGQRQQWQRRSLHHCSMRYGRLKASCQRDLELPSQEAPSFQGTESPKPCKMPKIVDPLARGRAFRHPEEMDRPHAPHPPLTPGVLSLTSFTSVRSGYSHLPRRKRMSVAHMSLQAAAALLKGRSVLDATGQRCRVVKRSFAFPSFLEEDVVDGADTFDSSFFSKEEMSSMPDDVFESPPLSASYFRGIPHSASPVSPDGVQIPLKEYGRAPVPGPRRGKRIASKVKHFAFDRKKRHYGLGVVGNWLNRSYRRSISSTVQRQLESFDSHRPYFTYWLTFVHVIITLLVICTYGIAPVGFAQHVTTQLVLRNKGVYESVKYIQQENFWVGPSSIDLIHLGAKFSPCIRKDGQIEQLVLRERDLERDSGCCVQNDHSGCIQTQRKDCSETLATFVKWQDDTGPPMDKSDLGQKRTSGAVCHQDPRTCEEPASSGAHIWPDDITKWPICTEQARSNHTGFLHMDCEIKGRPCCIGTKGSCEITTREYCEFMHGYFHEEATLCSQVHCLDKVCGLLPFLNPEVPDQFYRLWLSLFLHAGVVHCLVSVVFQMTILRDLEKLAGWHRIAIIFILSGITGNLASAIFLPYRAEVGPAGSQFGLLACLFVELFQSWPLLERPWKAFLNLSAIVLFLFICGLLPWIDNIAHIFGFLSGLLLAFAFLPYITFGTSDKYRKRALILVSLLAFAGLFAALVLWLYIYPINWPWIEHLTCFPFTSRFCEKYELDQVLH

The target in experiment [4] is T4, iRhom2 F307A (HA-tagged) (human) (UniProt Q6PJF5).
T4 sequence: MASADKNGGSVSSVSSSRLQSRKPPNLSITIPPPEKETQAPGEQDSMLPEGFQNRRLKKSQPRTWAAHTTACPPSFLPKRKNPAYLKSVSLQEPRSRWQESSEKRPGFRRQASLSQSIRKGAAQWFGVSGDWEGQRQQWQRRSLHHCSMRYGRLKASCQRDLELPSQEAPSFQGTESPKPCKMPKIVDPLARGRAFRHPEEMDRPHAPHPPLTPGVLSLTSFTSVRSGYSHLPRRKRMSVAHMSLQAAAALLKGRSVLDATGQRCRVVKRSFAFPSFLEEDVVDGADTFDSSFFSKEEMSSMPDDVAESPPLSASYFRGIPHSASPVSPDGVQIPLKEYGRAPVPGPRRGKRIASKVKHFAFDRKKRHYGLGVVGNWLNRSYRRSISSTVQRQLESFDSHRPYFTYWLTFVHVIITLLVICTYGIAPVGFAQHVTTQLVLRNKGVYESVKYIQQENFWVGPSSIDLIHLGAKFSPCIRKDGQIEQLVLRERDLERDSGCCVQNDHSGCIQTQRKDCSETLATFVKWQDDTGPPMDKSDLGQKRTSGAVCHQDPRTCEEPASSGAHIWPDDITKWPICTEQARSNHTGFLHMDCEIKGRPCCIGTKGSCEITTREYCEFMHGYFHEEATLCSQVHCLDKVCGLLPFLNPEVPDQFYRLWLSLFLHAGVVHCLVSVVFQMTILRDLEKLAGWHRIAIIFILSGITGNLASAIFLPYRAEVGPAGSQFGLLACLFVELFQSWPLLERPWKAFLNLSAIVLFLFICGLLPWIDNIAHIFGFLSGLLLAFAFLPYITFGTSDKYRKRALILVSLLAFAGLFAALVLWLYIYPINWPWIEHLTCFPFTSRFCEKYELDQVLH

Consider “beta-COP, endogenous (from UniProt P53618 1-953)”, for which the binding entry in experiment [1], in experiment [2] and in experiment [3] was “binds” in each case.

As to “ribosomal protein S6 kinase alpha-3 (RSK2), endogenous (from UniProt P51812 1-740) (enzyme)”, the binding entry in experiment [4] was “no binding”; in experiment [3], “binds”.

As to “14-3-3 epsilon, endogenous (from UniProt P62258 1-255)”, the binding entry in experiment [1], in experiment [2] and in experiment [3] was “binds” each time.

B1: V5-tagged FRMD8 (protein, UniProt Q9BZ67 1-464)
chain: MDGTEGSAGQPGPAERSHRSSVSSVGARAADVLVYLADDTVVPLAVENLPSLSAHELHRAVREVLQLPDIALDVFALWLVSPLLEVQLKPKHQPYKLGRQWPELLLRFTSAPDDDVAMDEPFLQFRRNVFFPKRRELQIHDEEVLRLLYEEAKGNVLAARYPCDVEDCEALGALVCRVQLGPYQPGRPAACDLREKLDSFLPAHLCKRGQSLFAALRGRGARAGPGEQGLLNAYRQVQEVSSDGGCEAALGTHYRAYLLKCHELPFYGCAFFHGEVDKPAQGFLHRGGRKPVSVAISLEGVHVIDSREKHVLLGLRFQELSWDHTSPEEEEPILWLEFDGDSEGTPVNKLLKIYSKQAELMSSLIEYCIELSQAAEPAGPQDSATGSPSDPSSSLAPVQRPKLRRQGSVVSSRIQHLSTIDYVEDGKGIRRVKPKRTTSFFSRQLSLGQGSYTVVQPGDSLEQG
For the molecule B1, the binding entry in experiment [1], in experiment [2] and in experiment [3] was “binds” in each case.

Source of the values: paper PMC12516561 (2025).
